According to the supplement of paper PMC10369915:
Some of the results follow. No stated cut-off is given here; in the data, active = 3.2 or more and inactive = the rest. The signal is at background level for most entries.

Tests used:
Experiment in all cases: enrichment score (SH2-bound / input frequency) (ratio); bacterial display of known human phosphotyrosine sites (pTyr-Var adds point mutants) read by sequencing; higher = stronger binding; tyrosines were phosphorylated by kinases first
Conditions in all cases: peptide library: Human pTyr
SHP2 C-SH2 domain E139D = target: SHP2 C-SH2 domain E139D
[1] = target: SHP2 C-SH2 domain wild-type
SHP2 N-SH2 domain L43F = target: SHP2 N-SH2 domain L43F
SHP2 N-SH2 domain T42A = target: SHP2 N-SH2 domain T42A
SHP2 N-SH2 domain T52S = target: SHP2 N-SH2 domain T52S
[2] = target: SHP2 N-SH2 domain wild-type

Measured: enrichment score
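Further: displayed peptides selected on beads carrying the immobilized SH2 domain, with library peptides lacking any tyrosine serving as negative controls.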

MNPSADEYADSDEDQ [SSRP1_HUMAN_441_YA]
inactive: SHP2 C-SH2 domain E139D 1.19 | [1] 0.988 | SHP2 N-SH2 domain L43F 1.15 | SHP2 N-SH2 domain T42A 1.03 | SHP2 N-SH2 domain T52S 1.18 | [2] 1.06

DAVLAIKYTDIRGQP [TCPA_HUMAN_181]
active: [1] 4.34
inactive: SHP2 C-SH2 domain E139D 2.07 | SHP2 N-SH2 domain L43F 0.883 | SHP2 N-SH2 domain T42A 1.81 | SHP2 N-SH2 domain T52S 0.97 | [2] 0.865

MEELQDDYEDMMEEN [B3AT_HUMAN_8]
inactive: SHP2 C-SH2 domain E139D 1.16 | [1] 1.17 | SHP2 N-SH2 domain L43F 1.07 | SHP2 N-SH2 domain T42A 1.01 | SHP2 N-SH2 domain T52S 1.36 | [2] 1.31

KDEVYSKYYTPVPCE [STA5B_HUMAN_682]
inactive: SHP2 C-SH2 domain E139D 1.27 | [1] 1.01 | SHP2 N-SH2 domain L43F 0.976 | SHP2 N-SH2 domain T42A 1.09 | SHP2 N-SH2 domain T52S 1.04 | [2] 0.932

ENLEQEEYEDPDIPE [B3AT_HUMAN_21]
inactive: SHP2 C-SH2 domain E139D 1.16 | [1] 1.33 | SHP2 N-SH2 domain L43F 1.26 | SHP2 N-SH2 domain T42A 1.06 | SHP2 N-SH2 domain T52S 1.27 | [2] 1.27

EAPVASVYSKLHPPA [STAM2_HUMAN_374_YA]
inactive: SHP2 C-SH2 domain E139D 1.03 | [1] 2.71 | SHP2 N-SH2 domain L43F 0.739 | SHP2 N-SH2 domain T42A 0.6 | SHP2 N-SH2 domain T52S 0.602 | [2] 0.601

KDEVASKYATPVPCE [STA5B_HUMAN_682_YA]
inactive: SHP2 C-SH2 domain E139D 1.03 | [1] 0.946 | SHP2 N-SH2 domain L43F 0.829 | SHP2 N-SH2 domain T42A 0.784 | SHP2 N-SH2 domain T52S 0.876 | [2] 0.818

SGLEEAVYRNIQACK [TCPQ_HUMAN_30]
inactive: SHP2 C-SH2 domain E139D 0.817 | [1] 0.723 | SHP2 N-SH2 domain L43F 0.692 | SHP2 N-SH2 domain T42A 0.684 | SHP2 N-SH2 domain T52S 0.543 | [2] 0.771

KIFPAEEYASWKTEK [TGFBR2_HUMAN_284_YA]
inactive: SHP2 C-SH2 domain E139D 0.991 | [1] 0.98 | SHP2 N-SH2 domain L43F 0.99 | SHP2 N-SH2 domain T42A 1.05 | SHP2 N-SH2 domain T52S 1.08 | [2] 0.697

METLQRIYGISFPDP [SYTC_HUMAN_298]
inactive: SHP2 C-SH2 domain E139D 0.865 | [1] 0.911 | SHP2 N-SH2 domain L43F 0.851 | SHP2 N-SH2 domain T42A 0.887 | SHP2 N-SH2 domain T52S 0.846 | [2] 1.08

MQQCDSPYVVKYYGS [STK3_HUMAN_81]
inactive: SHP2 C-SH2 domain E139D 1.24 | [1] 1.29 | SHP2 N-SH2 domain L43F 1.24 | SHP2 N-SH2 domain T42A 1.09 | SHP2 N-SH2 domain T52S 1.31 | [2] 1.46

EKLALYVYEYLLHVG [SSBP3_HUMAN_25]
inactive: SHP2 C-SH2 domain E139D 3.1 | [1] 2.95 | SHP2 N-SH2 domain L43F 2.76 | SHP2 N-SH2 domain T52S 2.89 | [2] 3.19
active: SHP2 N-SH2 domain T42A 3.23

EEEGRDEYDEVAMPV [B3AT_HUMAN_904]
inactive: SHP2 C-SH2 domain E139D 1.07 | [1] 0.88 | SHP2 N-SH2 domain L43F 0.939 | SHP2 N-SH2 domain T42A 1.06 | SHP2 N-SH2 domain T52S 0.912 | [2] 1.08

DRKDQGGYTMHQDQE [TAU_HUMAN_29]
inactive: SHP2 C-SH2 domain E139D 0.845 | [1] 0.602 | SHP2 N-SH2 domain L43F 0.874 | SHP2 N-SH2 domain T42A 0.811 | SHP2 N-SH2 domain T52S 0.659 | [2] 0.732

KIPQDGDYEFLKSWT [STK4_HUMAN_433]
inactive: SHP2 C-SH2 domain E139D 0.844 | [1] 0.673 | SHP2 N-SH2 domain L43F 0.806 | SHP2 N-SH2 domain T42A 0.85 | SHP2 N-SH2 domain T52S 0.854 | [2] 0.836

KRDSLGAYASQDANE [TB182_HUMAN_897]
inactive: SHP2 C-SH2 domain E139D 0.692 | [1] 0.694 | SHP2 N-SH2 domain L43F 0.612 | SHP2 N-SH2 domain T42A 0.67 | SHP2 N-SH2 domain T52S 0.732 | [2] 0.659

ERSTSYGYSRSRSGS [SRSF9_HUMAN_192]
inactive: SHP2 C-SH2 domain E139D 0.777 | [1] 0.513 | SHP2 N-SH2 domain L43F 0.636 | SHP2 N-SH2 domain T42A 0.77 | SHP2 N-SH2 domain T52S 0.877 | [2] 0.776

MGKDGRGYVPATIKM [STAT6_HUMAN_641]
inactive: SHP2 C-SH2 domain E139D 1.13 | [1] 0.982 | SHP2 N-SH2 domain L43F 1.14 | SHP2 N-SH2 domain T42A 1.07 | SHP2 N-SH2 domain T52S 1.11 | [2] 1.32

MAALEKDYEEVGADS [TBA1C_HUMAN_432]
inactive: SHP2 C-SH2 domain E139D 1.09 | [1] 1.12 | SHP2 N-SH2 domain L43F 0.878 | SHP2 N-SH2 domain T42A 1.05 | SHP2 N-SH2 domain T52S 1.24 | [2] 0.794

DKAGNEGYIPSNAVT [TEC_HUMAN_228_YA]
inactive: SHP2 C-SH2 domain E139D 0.549 | [1] 0.473 | SHP2 N-SH2 domain L43F 0.658 | SHP2 N-SH2 domain T42A 0.562 | SHP2 N-SH2 domain T52S 0.634 | [2] 0.407

KIFPYEEYASWKTEK [TGFBR2_HUMAN_284]
inactive: SHP2 C-SH2 domain E139D 1.1 | [1] 1.28 | SHP2 N-SH2 domain L43F 0.9 | SHP2 N-SH2 domain T42A 0.818 | SHP2 N-SH2 domain T52S 1.37 | [2] 1.55

EDNDDDLYGGGGGGG [TERA_HUMAN_805]
inactive: SHP2 C-SH2 domain E139D 1.11 | [1] 0.821 | SHP2 N-SH2 domain L43F 0.865 | SHP2 N-SH2 domain T42A 0.949 | SHP2 N-SH2 domain T52S 1.02 | [2] 0.777

GVLPSHAYESFLEKK [STAP2_HUMAN_22_YA]
inactive: SHP2 C-SH2 domain E139D 0.807 | [1] 0.522 | SHP2 N-SH2 domain L43F 0.822 | SHP2 N-SH2 domain T42A 0.515 | SHP2 N-SH2 domain T52S 0.681 | [2] 0.628

VDPDNEAYEMPSEEG [SYUA_HUMAN_125]
inactive: SHP2 C-SH2 domain E139D 1.21 | [1] 0.976 | SHP2 N-SH2 domain L43F 1.56 | SHP2 N-SH2 domain T42A 1.27 | SHP2 N-SH2 domain T52S 1.19 | [2] 1.59

TQYVHSPYDRPGWNP [SYGP1_HUMAN_39]
inactive: SHP2 C-SH2 domain E139D 0.928 | [1] 1.1 | SHP2 N-SH2 domain L43F 0.456 | SHP2 N-SH2 domain T42A 0.704 | SHP2 N-SH2 domain T52S 0.361 | [2] 0.616

DHGAEIVYKSPVVSG [TAU_HUMAN_711]
inactive: SHP2 C-SH2 domain E139D 0.68 | [1] 0.594 | SHP2 N-SH2 domain L43F 0.724 | SHP2 N-SH2 domain T42A 0.671 | SHP2 N-SH2 domain T52S 0.624 | [2] 0.636

EKLALAVYEALLHVG [SSBP3_HUMAN_25_YA]
inactive: SHP2 C-SH2 domain E139D 2.31 | [1] 2.04 | SHP2 N-SH2 domain L43F 1.84 | SHP2 N-SH2 domain T42A 1.94 | SHP2 N-SH2 domain T52S 2.01 | [2] 2.43

AKSPDEAYAIAKKLG [SUCB1_HUMAN_84]
inactive: SHP2 C-SH2 domain E139D 1.09 | [1] 0.81 | SHP2 N-SH2 domain L43F 0.792 | SHP2 N-SH2 domain T42A 0.802 | SHP2 N-SH2 domain T52S 0.885 | [2] 1.02

AGAGRGNYDAFRGQG [SRRT_HUMAN_836_YA]
inactive: SHP2 C-SH2 domain E139D 0.697 | [1] 0.698 | SHP2 N-SH2 domain L43F 0.772 | SHP2 N-SH2 domain T42A 0.954 | SHP2 N-SH2 domain T52S 0.908 | [2] 0.835

KEQERLAYINPDLAL [STIP1_HUMAN_354]
inactive: SHP2 C-SH2 domain E139D 0.881 | [1] 0.669 | SHP2 N-SH2 domain L43F 1.35 | SHP2 N-SH2 domain T52S 1.17 | [2] 0.872
active: SHP2 N-SH2 domain T42A 7.41

NLQERRKYLKHRLIV [STAT2_HUMAN_690]
inactive: SHP2 C-SH2 domain E139D 0.599 | [1] 0.8 | SHP2 N-SH2 domain L43F 0.51 | SHP2 N-SH2 domain T42A 0.592 | SHP2 N-SH2 domain T52S 0.774 | [2] 0.674

EPFIDAKYDVRVQKI [SYN1_HUMAN_312]
inactive: SHP2 C-SH2 domain E139D 0.525 | [1] 0.499 | SHP2 N-SH2 domain L43F 0.688 | SHP2 N-SH2 domain T42A 0.518 | SHP2 N-SH2 domain T52S 0.627 | [2] 0.635

DEDQHDAYLERMKEE [SSRP1_HUMAN_452]
inactive: SHP2 C-SH2 domain E139D 1.13 | [1] 0.965 | SHP2 N-SH2 domain L43F 0.961 | SHP2 N-SH2 domain T42A 1.1 | SHP2 N-SH2 domain T52S 1.19 | [2] 1.08

DEHSSDPYHSGAEMP [SRRT_HUMAN_92_YA]
inactive: SHP2 C-SH2 domain E139D 0.751 | [1] 0.594 | SHP2 N-SH2 domain L43F 0.607 | SHP2 N-SH2 domain T42A 0.589 | SHP2 N-SH2 domain T52S 0.617 | [2] 0.579

DEHSSDPYHSGYEMP [SRRT_HUMAN_92]
inactive: SHP2 C-SH2 domain E139D 0.446 | [1] 0.529 | SHP2 N-SH2 domain L43F 0.474 | SHP2 N-SH2 domain T42A 0.491 | SHP2 N-SH2 domain T52S 0.508 | [2] 0.473

GDGPAVDYENQDVAS [STAP2_HUMAN_322]
inactive: SHP2 C-SH2 domain E139D 0.862 | [1] 0.818 | SHP2 N-SH2 domain L43F 0.878 | SHP2 N-SH2 domain T42A 0.841 | SHP2 N-SH2 domain T52S 0.791 | [2] 0.813
